Our source for the viability index values is the supplement of paper PMC4723716.

± gives the uncertainty stated by the source. Whole data set: some 9,900 compounds, median “viability index relative to DMSO control” near 1, cut for the lowest 2% near 0.85. This is one part of the list.

The subject of the assay is Plasmodium falciparum NF54 stage V gametocytes. As to the kind of experiment: viability index relative to DMSO control (fraction); higher = less gametocyte killing. The conditions noted are these: 2.5 µM, incubation time: 72 h. Summed up: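 P. falciparum NF54 stage V gametocytes in serum-free screening medium (0.75% gametocytemia, 1.25% hematocrit, 10 µl) were incubated with compound at 2.5 µM in 1,536-well plates for 72 hr at 37°C under low oxygen. Then 3 µl of 2.5 µM MitoTracker Red CMXRos plus 0.13% saponin was added for one to two hours. One field per well was imaged, 20–70 µm2 red particles were counted, and the viability index was the count divided by the plate mean of DMSO wells.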

The mark [1] stands for this setting: library set: Broad Institute DOS.

In turn, `O=C(Nc1ccccc1F)N1CC(=O)N2[C@@H](CO)[C@H](c3ccc(-c4cccnc4)cc3)[C@@H]2C1` came in with a viability index under setting [1] of 1.08 ± 0.028. In turn, `Cc1ccccc1-c1ccc([C@@H]2[C@H]3CNC[C@@H]2N3Cc2ccccn2)cc1` displayed a viability index under setting [1] of 1.09 ± 0.026. For the compound `O=C(Nc1nccs1)[C@@H]1[C@@H](CO)[C@@H]2Cn3c(cccc3=O)[C@H]1N2C(=O)C1CC1`, the viability index under setting [1] stood at 1.1 ± 0.092. `CN(C)C(=O)C[C@H]1C[C@H]2c3cc(NC(=O)Nc4ccc(F)cc4)ccc3O[C@H]2[C@@H](CO)O1` had a viability index under setting [1] of 1.1 ± 0.12. Same read-out and setting: under `C[C@@H]1CN([C@H](C)CO)C(=O)c2cc(NC(=O)C3CCCCC3)ccc2O[C@@H](C)CCCCO[C@H]1CN(C)C(=O)CCC(F)(F)F` stands 1.05 ± 0.096.

On to `CO[C@@H](CN(C)Cc1ccc(-c2ccccn2)cc1)[C@@H](C)CN(C(=O)Nc1ccc(F)cc1)[C@@H](C)CO`, for which the viability index under setting [1] was found to be 1.044 ± 0.0044. The compound `COc1ccc(NC(=O)N(C)C[C@H]2OCc3cnnn3CCCC(=O)N([C@@H](C)CO)C[C@@H]2C)c(OC)c1` had a viability index under setting [1] of 0.981 ± 0.025. For `COc1cccc(C#Cc2ccc([C@H]3[C@@H](CO)N4C(=O)CN(C(=O)c5ccccc5)C[C@H]34)cc2)c1`, the viability index (library set: Broad Institute Blood Stage) came out at 0.754 ± 0.074. For `CN(C[C@@H]1[C@@H](c2ccccc2)[C@H](CO)N1CC1CC1)C(=O)c1ccc(F)cc1`, the viability index under setting [1] amounted to 1.07 ± 0.066. Compound `COc1ccc(S(=O)(=O)Nc2ccc3c(c2)[C@@H]2C[C@@H](CC(=O)N(C)C)O[C@H](CO)[C@@H]2O3)cc1` registered a viability index under setting [1] of 1.09 ± 0.088. The same measure, in the same setting: for `Cc1ccccc1S(=O)(=O)N1CCCCN2[C@H](CO)[C@H](c3ccc(C#CCN(C)C)cc3)[C@H]2C1` the value was 0.991 ± 0.03; for `C[C@@H]1CCCCO[C@H](CN(C)S(=O)(=O)c2ccccc2)[C@@H](C)CN([C@@H](C)CO)C(=O)c2cc(NC(=O)Nc3ccc4c(c3)OCO4)ccc2O1`, 0.9587 ± 0.0082. Still for that read-out and setting: for `CCc1sc(N2[C@@H](C#N)[C@@H](c3ccccc3-c3cccc(F)c3)[C@@H]2CO)nc1C` the value was 1.05 ± 0.12; for `O=C(CN1CCOCC1)N1CC[C@H]2[C@H](CO)Nc3ccc(Br)cc3[C@H]21`, 1.01 ± 0.04; for `O=C(CC1CC1)N1CC(=O)N2[C@H](CO)[C@@H](c3ccc(C#Cc4cccc(F)c4)cc3)[C@@H]2C1`, 1 ± 0.038. The compound `Cc1cccc(S(=O)(=O)N2C[C@@H]3[C@H](c4ccccc42)[C@H](CO)N3Cc2ccc3c(c2)OCO3)c1` gave a viability index under setting [1] of 1.05 ± 0.039. On the same count and under the same terms, under `C[C@H](CO)N1C[C@H](C)[C@H](CN(C)C(=O)NC2CCCC2)OCc2cnnn2CCCC1=O` stands 1.01 ± 0.049. Take `CO[C@H]1CN(C)C(=O)c2ccc(NS(=O)(=O)CC(F)(F)F)cc2OC[C@H](C)N(C(=O)NC(C)C)C[C@H]1C`: the viability index under setting [1] stood at 1.04 ± 0.035. In turn, `CNC[C@H]1OCc2cn(nn2)CCCC(=O)N([C@H](C)CO)C[C@@H]1C` came in with a viability index under setting [1] of 1.08 ± 0.03. For the compound `CO[C@H]1CN(C)C(=O)c2cc(NC(=O)CC(F)(F)F)ccc2OC[C@H](C)N(CC2CC2)C[C@H]1C`, the viability index under setting [1] was 0.967 ± 0.015. In the case of `CN1c2ccc(C3=CCCCC3)cc2[C@@H]2[C@@H](CCN2C(=O)c2ccccc2F)[C@@H]1CO`, the viability index under setting [1] was determined as 0.9269 ± 0.0031.

Take `CCCNC(=O)N1C[C@]2(CN(Cc3cccc(F)c3)C2)c2c([nH]c3cc(OC)ccc23)[C@H]1CO`: the viability index under setting [1] worked out at 0.96 ± 0.11. `C[C@@H]1CCCCO[C@@H](CN(C)S(=O)(=O)c2ccc(Cl)cc2)[C@H](C)CN([C@@H](C)CO)C(=O)c2cc(NC(=O)Nc3ccc(C(F)(F)F)cc3)ccc2O1`: under setting [1], the viability index was 1.09 ± 0.079.

`COc1cccc(-c2ccccc2[C@H]2[C@@H](C#N)N(C(=O)Cc3ccccc3)[C@@H]2CO)c1` came in with a viability index under setting [1] of 1.124 ± 0.0072. On the same count and under the same terms, for `C[C@H]1CC(=O)N[C@H](c2ccccc2)C/C=C\C[C@H](c2ccc3c(c2)OCO3)NC1=O` the value was 1.05 ± 0.032; for `CN(C)CC(=O)N[C@H]1C=C[C@@H](CC(=O)NCc2ccc(Cl)cc2)O[C@@H]1CO`, 1.15 ± 0.21.

For the compound `O=S(=O)(c1ccccc1)N1CCCCN2[C@H](CO)[C@@H](c3ccc(C#CC4CCCC4)cc3)[C@@H]2C1`, the viability index under setting [1] was 1.01 ± 0.026. As to `C[C@@H]1CN([C@@H](C)CO)C(=O)CCCn2nncc2CO[C@@H]1CN(C)Cc1ccccc1C(=O)O`, the viability index under setting [1] is 1.03 ± 0.081.

Compound `CO[C@@H]1CN(C)C(=O)c2ccc(NS(=O)(=O)CC(F)(F)F)cc2OC[C@@H](C)N(C(=O)NC(C)C)C[C@H]1C` showed a viability index under setting [1] of 1.04 ± 0.044. On the same count and under the same terms, under `CCC(=O)N1C[C@H](C)[C@H](OC)CN(C)C(=O)c2ccc(NC(=O)CC(F)(F)F)cc2OC[C@H]1C` stands 1.05 ± 0.12; under `O=C(Cc1ccccn1)N1[C@@H](CO)[C@@H]2c3ccccc3NC[C@@H]21`, 0.972 ± 0.082. The compound `CCCC(=O)N1CC[C@@]2(CC1)CN(Cc1ccc(Cl)cc1)[C@@H](CO)c1[nH]c3cc(OC)ccc3c21` showed a viability index under setting [1] of 0.795 ± 0.039.

In the case of `C[C@@H]1CCCCO[C@@H](CN(C)C(=O)c2ccncc2)[C@H](C)CN([C@H](C)CO)C(=O)c2cc(NS(=O)(=O)c3cccs3)ccc2O1`, under setting [1], the viability index was 1.08 ± 0.098. `CO[C@H]1CN(C)C(=O)c2ccc(NC(C)=O)cc2OC[C@H](C)N(C(=O)c2cnccn2)C[C@@H]1C` gave a viability index under setting [1] of 1.13 ± 0.071.

As for `C[C@@H]1CN([C@@H](C)CO)C(=O)c2cc(C3=CCCCC3)cnc2O[C@@H]1CN(C)S(=O)(=O)c1cn(C)cn1`, the viability index under setting [1] stood at 0.995 ± 0.023.
